Sequences with one replicate were seen in a single cluster, so their values are uncertain.
System: ATP
Assay: switch fluorescence ratio, 500 uM ATP over buffer (Cy3 cluster intensity, sum of 5 cycles each) (fold (ratio)); higher = stronger signal-on switching upon ATP binding; sequences stand for … in TCGTCGGCAGCGTCAGATGTGTATAAGAGACAGTTTTTTTTTTTTTTTTTTTTTTTTT…TC
Settings: aptamer strand: ATP DNA aptamer (quencher-CACCTGGGGGAGTATTGCGGAGGAAGG + anchor), 100 nM annealed; ATP concentration: 500 uM; one replicate
In short: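 Imaging in selection buffer was followed by imaging after 15 min with 500 uM ATP at 22 °C, for Cy3-labelled switching-strand clusters annealed to 100 nM quencher-labelled ATP aptamer on a modified Illumina MiSeq flow-cell. Five of these buffer/ATP cycles ran, separated by NaOH stripping and re-annealing. The fluorescence ratio per cluster is summed target-cycle over summed buffer-cycle Cy3 intensity, averaged per switch-domain sequence; clusters outside 100-1000 RFU were removed.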
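Also: ATP exposure 15 min at 22 °C before imaging.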

Row | Sequence | switch fluorescence ratio
1 | GATGGATGGC | 1.03
2 | TCAACTCTGG | 1.04
3 | TTTCATTTTC | 1.03
4 | ATAGGTGGG | 0.987
5 | CGTGTCATGC | 1.03
6 | TTTGCATACG | 2.57
7 | CGTGTAATCT | 0.999
8 | ACAGGATAT | 1.02
9 | CCACGAGT | 1.01
10 | CATGGGGGAA | 1.01
11 | CAATATACTA | 1.03
12 | TATCCCAGT | 0.997
13 | CATAAAGTAA | 1.04
14 | GACACCGGGC | 1.12
15 | TTTCCTACGT | 0.997
16 | ATGTTCGAAT | 0.972
17 | TGTTCTGGTT | 1.02
18 | TATGGATTC | 0.967
19 | AAGAGGGAC | 1
20 | ACAGTTTGAA | 1.02
21 | TTAAGCAGGT | 0.98
22 | GCTTCAGTCC | 1.03
23 | AAGGTATCCG | 1.1

Row | Sequence | switch fluorescence ratio
24 | AATGCTACGT | 1.03
25 | TAGCGTTGG | 1.02
26 | CCCAGCCGTG | 1.09
27 | AGCGCCTGGT | 0.974
28 | GGGGTGCGCT | 0.98
29 | GTTGGCGGAA | 0.961
30 | GAGGTCACTT | 1.01
31 | TAGGGCCGAA | 1
32 | TATCATTGGA | 1.01
33 | AGAAGTTCTG | 1.07
34 | TTAGTCAGAC | 1.15
35 | CTTGTTTTTT | 0.987
36 | TAAACGTAGG | 0.983
37 | ACATTCTCTA | 0.968
38 | TTTCCGTATA | 1.27
39 | GTTGTTCCGT | 0.955
40 | TGATTGTTC | 0.997
41 | TCGGAGGAGT | 1.03
42 | GGAGTACTTC | 1.03
43 | GGGGCTCGAG | 1.06
44 | CCTAGACTGA | 1.01
45 | GTAGCAAATG | 1.64
46 | CACATCTCTT | 1

Row | Sequence | switch fluorescence ratio
47 | GCCTGTTTGC | 1
48 | GCTAAACAGT | 0.984
49 | AGAGGAGGAA | 0.983
50 | AGTCCATTTT | 0.981
51 | CTAGTAGCT | 1.03
52 | GTTATGCATT | 0.987
53 | ACCTGGTATG | 1.04
54 | GGGGTAACGA | 0.973
55 | GCTAGGATTG | 0.981
56 | GACTCGGCCT | 1.04
57 | TTTTTAACC | 0.99
58 | TCAAGAGTCC | 1
59 | TAAGTAGAAT | 0.968
60 | TGGTCGCGCG | 1.01
61 | TTTTGACCAT | 1.02
62 | TATTAGAGCT | 1.01
63 | AGACTATTAT | 1.06
64 | ACTATCCTGT | 1.03
65 | GATGGAGTA | 1.09
66 | ACGTTAGGT | 1.11
67 | CGCGTCC | 1.15
68 | CTTTGGTCAA | 1.05
69 | GCTACTGGAG | 1.03

Row | Sequence | switch fluorescence ratio
70 | CGAGATGAAA | 1.01
71 | CTTAATCAGC | 1.06
72 | CCGTCCTAGT | 1.06
73 | CCTCAGGGTA | 1.49
74 | TAGATGGTTG | 0.991
75 | GATAAAATAA | 1.02
76 | CGCGGCTCCT | 1.8
77 | ATCTCAGGGG | 1.87
78 | TGTTCGTCAA | 1.03
79 | GGGGCCCCT | 1.04
80 | CTCAGGAGAT | 0.983
81 | TACAGGGTAC | 1.08
82 | AGTTATGCA | 0.983
83 | GAGTGCTAGA | 1.05
84 | TTTTACGAAA | 1.78
85 | GGTGGTTTGT | 1
86 | ACGTAGCAGT | 4.56
87 | AGAGGATCAT | 0.94
88 | AACTCTGGCA | 1.01
89 | CCTTGACTTT | 0.982
90 | TGTGGCTAG | 1
91 | TCGGACTGAA | 1.04
92 | TGGCACGTAA | 1.24

Row | Sequence | switch fluorescence ratio
93 | GTGAGGGTAC | 0.953
94 | ATTCCTGAAA | 0.981
95 | TATTCTTGGT | 1
96 | TTGAGCAACA | 1.04
97 | GGTCTAAACA | 1.01
98 | TAGCGGTATC | 1.04
99 | AGTCGACAGT | 0.999
100 | CTGGAGGCTC | 1.06
101 | TTGTAGGGCG | 1.04
102 | ACATCCACT | 1.13
103 | CAATGCAGT | 0.982
104 | CATTAAGCCT | 1.11
105 | TAGACTTAGT | 0.976
106 | GGGTAGAGC | 1.08
107 | ATGATAAGGC | 0.939
108 | CAGACGAGCA | 1.29
109 | GATTGCATTT | 0.985
110 | ATGACACATG | 0.981
111 | GTTGAGTAGT | 1.07
112 | TCTAGTTAGT | 0.973
113 | GGACTTTTTC | 0.975
114 | CCACACGTGG | 0.97
115 | TAAGATTCTC | 1

Row | Sequence | switch fluorescence ratio
116 | CGCTACCGCG | 1.02
117 | CACCGTAAAT | 1.47
118 | TACCCCGAAA | 1.12
119 | ACCTGGGTCA | 1.03
120 | TCCTACGGTA | 2.78
121 | ATCCTGGAAA | 0.983
122 | ATTGTCCAGG | 1.53
123 | GCCGCTTTTT | 1.1
124 | GAGATTGAAC | 0.964
125 | CAAGGAAATG | 0.997
126 | GGGAACACGG | 1.05
127 | GGGTCACCCA | 1.06
128 | TATTCGCACC | 1.26
129 | GCGTTGTGCT | 1.09
130 | ACGCGGTACT | 2.11
131 | GACCTCGTGT | 1.02
132 | GGCCATATAT | 0.989
133 | CCGCTAAGTT | 1.88
134 | ATGATAGCTC | 0.942
135 | AGGAGACTAA | 0.988
136 | GAGAGGGCTC | 1.04
137 | TCATAAGGG | 0.963
138 | GTCCCAGCAG | 1.08

Row | Sequence | switch fluorescence ratio
139 | TTGTCTTAAC | 0.986
140 | ATGAGCCTCG | 1.03
141 | AATGTGTACG | 1.01
142 | GCTTGGGCTC | 1.04
143 | GACACCCTAA | 1.08
144 | GCTGACTCA | 1.07
145 | GCTGGGCGGT | 0.958
146 | AACCCGATTG | 1.04
147 | TGGTCCGTCA | 1
148 | AGATCATGCA | 0.989
149 | TAGTGCCGTA | 1.1
150 | TTAGGGAGAC | 1.06
151 | ATATGTAAGT | 0.963
152 | AATATAGTAG | 0.998
153 | GGATTGATAA | 0.987
154 | ACTCACACTC | 1.38
155 | CGGAGTTACG | 1.03
156 | CGTCAATTCA | 1.17
157 | CTTAGTGGG | 0.97
158 | AGCAATGGCT | 1.24

Source: the supplement of paper PMC10126150
